# This is one part of the list. Cleavage of a single-stranded DNA pool by Rep nickase domains was read by sequencing (1 h at 37 °C, 3 µM enzyme); the outer parts of the 90-letter strands are left off. Uncut reads are compared with the no-enzyme pool on a log2 scale; uncut sequences lie near 0, cut ones below; no hit call is given. The scaling is to total reads; values above 0 arise when much of the pool is cut.
# Test system: T1, Rep nickase domain of tomato golden mosaic virus
# T1 sequence (Rep 1-124, printed without the tag): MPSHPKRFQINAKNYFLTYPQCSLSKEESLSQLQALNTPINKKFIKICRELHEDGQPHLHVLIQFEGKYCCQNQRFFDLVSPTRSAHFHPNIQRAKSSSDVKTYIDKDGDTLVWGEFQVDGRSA
# Assay: uncleaved DNA left, log2 of reads against the no-enzyme library (log2 ratio); higher = less cleavage (more negative = more Rep cleavage of the k-mer); sequences stand for … in CTCGTCCG…ACCGGAGA
# Experimental: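 A pool of 90-nt single-stranded DNAs with seven random bases just before the constant AC of the nick site (name = the seven bases) was cut by 3 µM recombinant His6-SUMO-tagged Rep nickase domain (300 nM DNA, 50 mM HEPES pH 8.0, 50 mM NaCl, 1 mM MnCl2, 1 h, 37 °C, three replicates). Uncut DNA was amplified and sequenced.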
row,Sequence,uncleaved DNA left (log2)
1,TGACCGA,-0.103
2,ATAAACG,0.0966
3,GGCTCGG,0.136
4,TATAACA,-0.00157
5,ATTAAGC,-0.0165
6,AAGGTAA,0.158
7,AGTCAAG,0.081
8,ATCCCGC,0.043
9,AAATGGC,0.066
10,CGACTCG,-0.131
11,GAATTAC,0.034
12,GAAAACA,0.123
13,GTGCCGG,0.138
14,AGTCGTG,-0.059
15,ATTGCCC,-0.0912
16,CTACAGC,-0.115
17,GGACAGT,-0.065
18,CTTCTCT,0.00774
19,ACTTATT,-0.085
20,CAGACAG,0.0626

row,Sequence,uncleaved DNA left (log2)
1,ACCAGCT,-0.0279
2,AACAGGT,-0.0147
3,ACCTATC,-0.0106
4,AGGGGAA,0.0772
5,GTGCGCT,-0.064
6,TCCGTAC,-0.14
7,CGATAGG,0.16
8,AAGAAAG,0.156
9,TACCCGG,0.0641
10,TGGACCG,0.185
11,AATCGCT,-0.00608
12,GGTTGGA,0.167
13,TTGATTA,0.0795
14,GTTCTTA,-0.0225
15,ACGTAAT,-0.0758
16,TGTGGTG,-0.0423
17,AGCCAGC,-0.0123
18,ACTAGTT,0.0968
19,TATCAGT,-0.144
20,GTAAAAG,0.0119
